Measured values as given in article PMC5145805, “Structural Basis for Selective Interaction between the ESCRT Regulator HD-PTP and UBAP1” (Structure(London, England:1993), 2016).
These are yes or no findings as the source states them, for the method shown. For part of these data: Binding seen in cells or lysates may run through a third protein. Some results given as binding are weak or reduced against the parent protein; the word gives no strength. For part of these data: Where a sequence is shown, tags or fusion partners need not be part of it. Each block holds one binder with its values, some of them ahead of it.

The chains behind the UniProt entries cited, without tags or fusion partners. Residues count along the entry.
UniProt Q8WUM4, residues 358-702: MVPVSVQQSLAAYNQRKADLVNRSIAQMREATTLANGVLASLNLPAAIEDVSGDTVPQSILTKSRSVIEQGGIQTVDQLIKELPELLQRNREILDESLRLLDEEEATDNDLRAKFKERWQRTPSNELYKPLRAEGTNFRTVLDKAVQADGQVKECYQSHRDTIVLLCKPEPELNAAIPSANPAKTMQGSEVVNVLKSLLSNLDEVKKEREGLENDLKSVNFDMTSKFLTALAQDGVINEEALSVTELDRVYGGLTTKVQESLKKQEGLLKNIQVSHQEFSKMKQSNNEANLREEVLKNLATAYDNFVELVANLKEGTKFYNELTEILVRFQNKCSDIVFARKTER

Tests used:
[1] = biological target: T1, HD-PTP_(Bro1-CC) (residues 1-714), His6-tagged (UniProt Q9H3S7); test: SPR; ProteOn XPR36; HD-PTP constructs (50-100 ug/mL) immobilised on an HTE chip, peptides injected (50 uL at 100 uL/min); 25 C; 10 mM HEPES pH 7.4, 150 mM NaCl, 0.05% Tween 20; equilibrium binding model; both purified
T1 sequence: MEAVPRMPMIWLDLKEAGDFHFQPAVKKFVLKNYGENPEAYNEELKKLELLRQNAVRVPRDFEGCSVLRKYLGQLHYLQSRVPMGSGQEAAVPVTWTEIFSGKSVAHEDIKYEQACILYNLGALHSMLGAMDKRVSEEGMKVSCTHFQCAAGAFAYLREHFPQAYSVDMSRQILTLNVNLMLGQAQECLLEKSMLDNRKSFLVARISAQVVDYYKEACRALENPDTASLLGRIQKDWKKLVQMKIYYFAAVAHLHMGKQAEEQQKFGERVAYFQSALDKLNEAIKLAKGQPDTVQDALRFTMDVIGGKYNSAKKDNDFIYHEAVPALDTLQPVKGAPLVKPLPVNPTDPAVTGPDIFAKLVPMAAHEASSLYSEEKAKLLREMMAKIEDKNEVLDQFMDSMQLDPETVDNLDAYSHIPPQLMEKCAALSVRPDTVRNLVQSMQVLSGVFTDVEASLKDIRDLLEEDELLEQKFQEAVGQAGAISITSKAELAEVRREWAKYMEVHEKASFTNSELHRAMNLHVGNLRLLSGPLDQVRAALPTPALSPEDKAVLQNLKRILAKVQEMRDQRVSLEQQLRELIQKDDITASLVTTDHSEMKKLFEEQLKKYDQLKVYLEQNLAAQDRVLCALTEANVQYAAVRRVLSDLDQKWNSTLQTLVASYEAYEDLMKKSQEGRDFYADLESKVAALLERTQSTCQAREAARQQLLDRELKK

[2] = biological target: T2, HD-PTPCC (coiled-coil domain of HD-PTP, residues 363-712) (UniProt Q9H3S7); test: as above
T2 sequence: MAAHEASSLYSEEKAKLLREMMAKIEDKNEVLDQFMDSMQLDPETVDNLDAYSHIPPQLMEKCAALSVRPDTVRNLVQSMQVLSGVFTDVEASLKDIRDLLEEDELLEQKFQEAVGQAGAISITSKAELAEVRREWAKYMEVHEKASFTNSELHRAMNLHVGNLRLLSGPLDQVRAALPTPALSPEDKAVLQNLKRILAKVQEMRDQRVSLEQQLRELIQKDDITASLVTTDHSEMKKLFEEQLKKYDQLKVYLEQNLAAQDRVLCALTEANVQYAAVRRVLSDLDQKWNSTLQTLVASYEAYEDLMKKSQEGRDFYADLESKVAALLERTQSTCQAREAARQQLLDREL

[3] = biological target: T3, HD-PTPCC (residues 363-712), His6 tag removed, as crystallised (UniProt Q9H3S7); test: crystal structure; HD-PTPCC (1 mg/mL, His6 removed) mixed with 1 mM UBAP1 peptide, concentrated to 11 mg/mL; 0.2 M KSCN, 20% PEG3350; 2.55 A; both purified
T3 sequence: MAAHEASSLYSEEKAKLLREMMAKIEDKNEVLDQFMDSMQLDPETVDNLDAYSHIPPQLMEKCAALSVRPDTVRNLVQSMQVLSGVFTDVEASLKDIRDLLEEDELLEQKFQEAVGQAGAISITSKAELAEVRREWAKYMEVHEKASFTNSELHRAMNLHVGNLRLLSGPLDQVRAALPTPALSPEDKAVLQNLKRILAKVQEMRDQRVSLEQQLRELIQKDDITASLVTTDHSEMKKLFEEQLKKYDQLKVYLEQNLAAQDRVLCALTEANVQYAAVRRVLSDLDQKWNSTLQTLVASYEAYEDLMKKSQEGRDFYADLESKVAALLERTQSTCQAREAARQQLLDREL

[4] = biological target: T4, HD-PTP_(Bro1) (residues 1-361) (UniProt Q9H3S7); test: SPR; ProteOn XPR36; HD-PTP constructs (50-100 ug/mL) immobilised on an HTE chip, peptides injected (50 uL at 100 uL/min); 25 C; 10 mM HEPES pH 7.4, 150 mM NaCl, 0.05% Tween 20; equilibrium binding model; both purified
T4 sequence: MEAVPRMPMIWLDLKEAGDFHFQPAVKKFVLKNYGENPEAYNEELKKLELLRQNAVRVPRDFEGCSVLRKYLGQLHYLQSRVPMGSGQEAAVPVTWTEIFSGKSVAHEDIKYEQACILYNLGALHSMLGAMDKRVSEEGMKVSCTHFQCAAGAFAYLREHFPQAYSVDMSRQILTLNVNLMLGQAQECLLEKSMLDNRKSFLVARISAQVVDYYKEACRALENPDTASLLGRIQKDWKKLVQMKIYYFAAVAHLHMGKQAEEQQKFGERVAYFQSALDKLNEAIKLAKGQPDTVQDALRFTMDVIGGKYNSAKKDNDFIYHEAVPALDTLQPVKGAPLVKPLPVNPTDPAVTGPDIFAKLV

HD-PTPCC F678D = biological target: T5, HD-PTPCC F678D (UniProt Q9H3S7); test: as above
T5 sequence: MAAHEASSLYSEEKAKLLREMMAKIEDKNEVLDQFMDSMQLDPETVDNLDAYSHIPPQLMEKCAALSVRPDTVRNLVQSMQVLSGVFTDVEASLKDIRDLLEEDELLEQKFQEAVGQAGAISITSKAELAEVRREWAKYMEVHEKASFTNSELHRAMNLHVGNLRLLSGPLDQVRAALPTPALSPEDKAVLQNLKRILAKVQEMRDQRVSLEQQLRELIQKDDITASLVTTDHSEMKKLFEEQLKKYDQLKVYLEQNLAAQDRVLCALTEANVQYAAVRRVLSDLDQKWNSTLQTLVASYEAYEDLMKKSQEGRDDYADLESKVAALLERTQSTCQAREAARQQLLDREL

[5] = biological target: AlixV (V domain of Alix, residues 358-702) (UniProt Q8WUM4); test: SPR; Figure 7B; the legend does not name the method and the text says 'in solution'; taken as the biosensor set-up of the methods (protein immobilised, peptide injected); both purified
[6] = biological target: T2, HD-PTPCC (coiled-coil domain of HD-PTP, residues 363-712); test: NMR titration; 1H-13C HSQC of UBAP1C (1 mg/mL, ~0.5 mM, natural abundance 13C) in PBS in D2O pD 7.5, without and with 60 uM HD-PTPCC; 800 MHz; both purified
[7] = biological target: T6, MTSL-labeled HD-PTPCC C697S mutant (UniProt Q9H3S7); test: NMR paramagnetic relaxation enhancement (PRE); 1H-13C HSQC of UBAP1C with MTSL-labeled HD-PTPCC C697S, oxidised against reduced with 10-fold excess sodium ascorbate; same conditions as the HSQC experiment; both purified
T6 sequence (chain, MTSL (methanethiosulfonate spin label) on C425 and C628): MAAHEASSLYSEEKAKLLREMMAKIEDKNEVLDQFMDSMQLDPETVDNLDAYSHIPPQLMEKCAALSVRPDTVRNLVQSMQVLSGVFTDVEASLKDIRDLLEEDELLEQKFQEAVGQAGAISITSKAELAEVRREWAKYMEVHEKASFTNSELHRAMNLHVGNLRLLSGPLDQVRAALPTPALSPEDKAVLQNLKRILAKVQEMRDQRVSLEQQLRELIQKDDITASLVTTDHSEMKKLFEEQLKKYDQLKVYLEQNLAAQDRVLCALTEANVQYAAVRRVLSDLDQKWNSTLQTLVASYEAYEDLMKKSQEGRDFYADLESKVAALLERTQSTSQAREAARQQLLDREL

[8] = biological target: T1, HD-PTP_(Bro1-CC) (residues 1-714), His6-tagged; test: co-IP; 20 uL in vitro translated 35S-UBAP1-strep with 5 ug His6-HD-PTP_(Bro1-CC) in 20 mM HEPES pH 7.4, 100 mM NaCl, 1 mM MgCl2, 1% Triton X-100, 4 C; anti-His antibody and protein A-Sepharose; only the target purified

binding [1]: no binding | binding [2]: no binding
B1: UBAP1C peptide containing the F268S substitution (peptide, UniProt Q9NZ09 261-280)
peptide: SNIKSLSSPKLDSDDSNQKT

binding [3]: binds | binding [4]: no binding | binding (HD-PTPCC F678D): no binding | binding [5]: no binding | binding [6]: binds | binding [7]: binds
B2: UBAP1C (UBAP1 peptide containing residues 261-280) (peptide, UniProt Q9NZ09 261-280, looked up)
peptide: SNIKSLSFPKLDSDDSNQKT
notes: also called UBAP1C peptide

binding [8]: binds
B3: UBAP1-strep, full-length, in vitro translated (protein, UniProt Q9NZ09 1-502)
chain: MASKKLGADFHGTFSYLDDVPFKTGDKFKTPAKVGLPIGFSLPDCLQVVREVQYDFSLEKKTIEWAEEIKKIEEAEREAECKIAEAEAKVNSKSGPEGDSKMSFSKTHSTATMPPPINPILASLQHNSILTPTRVSSSATKQKVLSPPHIKADFNLADFECEEDPFDNLELKTIDEKEELRNILVGTTGPIMAQLLDNNLPRGGSGSVLQDEEVLASLERATLDFKPLHKPNGFITLPQLGNCEKMSLSSKVSLPPIPAVSNIKSLSFPKLDSDDSNQKTAKLASTFHSTSCLRNGTFQNSLKPSTQSSASELNGHHTLGLSALNLDSGTEMPALTSSQMPSLSVLSVCTEESSPPNTGPTVTPPNFSVSQVPNMPSCPQAYSELQMLSPSERQCVETVVNMGYSYECVLRAMKKKGENIEQILDYLFAHGQLCEKGFDPLLVEEALEMHQCSEEKMMEFLQLMSKFKEMGFELKDIKEVLLLHNNDQDNALEDLMARAGAS
modifications: 35S-methionine labelled
